# In the supplement of paper PMC3334620:
# Whole data set: some 33,000 sequences, median “E-score (-0.5 to 0.5)” near -0.012, cut for the highest 2% near 0.29. This is one part of the list.
# Target: T1, Ybr033w (UniProt P38073)
# T1 sequence: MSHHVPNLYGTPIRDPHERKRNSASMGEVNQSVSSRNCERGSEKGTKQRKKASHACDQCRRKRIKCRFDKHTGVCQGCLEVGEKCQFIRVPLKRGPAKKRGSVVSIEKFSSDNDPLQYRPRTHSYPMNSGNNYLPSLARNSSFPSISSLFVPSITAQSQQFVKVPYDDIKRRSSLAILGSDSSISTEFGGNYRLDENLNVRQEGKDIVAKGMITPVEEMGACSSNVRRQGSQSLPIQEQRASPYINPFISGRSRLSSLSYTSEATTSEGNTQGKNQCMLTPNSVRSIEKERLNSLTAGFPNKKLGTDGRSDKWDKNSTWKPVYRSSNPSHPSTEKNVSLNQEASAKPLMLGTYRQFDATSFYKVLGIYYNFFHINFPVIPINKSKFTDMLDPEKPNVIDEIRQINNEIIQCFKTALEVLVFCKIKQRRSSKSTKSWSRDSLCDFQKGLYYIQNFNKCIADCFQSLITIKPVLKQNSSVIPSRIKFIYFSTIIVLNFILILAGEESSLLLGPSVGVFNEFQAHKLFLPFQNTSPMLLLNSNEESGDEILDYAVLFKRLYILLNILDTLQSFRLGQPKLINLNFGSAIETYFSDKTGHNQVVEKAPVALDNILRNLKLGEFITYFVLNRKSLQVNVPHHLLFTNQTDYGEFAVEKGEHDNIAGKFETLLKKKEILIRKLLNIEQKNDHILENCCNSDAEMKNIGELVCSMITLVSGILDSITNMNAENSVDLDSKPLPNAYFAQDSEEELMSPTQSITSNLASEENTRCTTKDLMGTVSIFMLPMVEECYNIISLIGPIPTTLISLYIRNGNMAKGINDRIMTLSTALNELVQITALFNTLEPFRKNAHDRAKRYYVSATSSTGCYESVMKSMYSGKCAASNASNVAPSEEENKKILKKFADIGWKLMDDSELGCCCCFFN
# Assay: PBM E-score (8-mer binding enrichment) (E-score (-0.5 to 0.5)); higher = stronger / more preferred TF binding; most listed sequences are background and not binding sites
# Conditions: protein concentration: 200 nM; construct: GST-full length
# Procedure, shortened: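 Universal all-10-mer Agilent arrays, double-stranded by primer extension on fresh or once-stripped slides, were probed with about 100-200 nM GST-tagged yeast transcription factors made by PURExpress. Fluorescent anti-GST detected bound protein, and masliner normalised the scans. E-scores from the Universal PBM Analysis Suite were given to each ungapped eight-base word pooled with its reverse complement.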
row,Sequence,PBM E-score
1,AGGCCGAG,0.149
2,TGGCTGAA,-0.00769
3,ATGTCGGG,-0.0221
4,CAGATCGA,0.0372
5,ATGTTGGA,0.175
6,GATACATC,-0.0274
7,AAAAAACT,0.183
8,ATGTCTAC,-0.092
9,GGTTTTCA,0.105
10,GCTTTCCA,0.0541
11,ACTTTAGC,-0.0319
12,AGGGGAAC,-0.278
13,CTCCAAAG,-0.087
14,AAGATGCC,-0.0419
15,AGGTATGG,-0.217
16,CATAAACC,0.11
17,CCTACTCG,-0.109
18,TTCTAAAA,0.221
19,GTTAAAAC,0.0881
20,CATAACGG,0.0155
21,GACCTAGA,-0.172
22,CGCGTTAC,0.00271
23,CGTCCTAA,-0.138
24,CATTTCCC,0.0841

row,Sequence,PBM E-score
1,ATAATGCC,0.0843
2,TACTCTGA,-0.0623
3,GCGTGCAC,-0.162
4,AGGATTTC,0.119
5,ACGGGTCT,-0.327
6,CCTGTCAG,0.0774
7,AAGTAGCA,0.162
8,ATGGAACC,-0.094
9,ACTGCGCC,-0.278
10,AGACAGGG,-0.164
11,ACAACTTA,0.142
12,ATAACAAA,0.29
13,ACCTTGTG,-0.0938
14,GTCCGTTA,0.112
15,CGAATAGC,-0.0575
16,AAAATACA,0.254
17,CAGTCACC,-0.164
18,GAAGGGCA,-0.156
19,CCCCCACG,-0.283
20,GTCATGCA,-0.0282
21,ACATCGGA,0.13
22,AGCCTGTG,-0.18
23,GACTTTAA,0.0963
24,CACTGCCG,0.00024

row,Sequence,PBM E-score
1,ATCTCTAC,0.226
2,AAATTAAG,0.144
3,AGTTATTA,0.173
4,CCATGCGG,-0.0979
5,CTATAACC,-0.0852
6,CTTCCTGC,-0.301
7,CAGTGCTA,-0.104
8,GTATAGGA,0.0159
9,AAGTTCCC,-0.0322
10,GCCCCAGC,-0.2
11,AGGACTTG,-0.13
12,GCGAAGGA,-0.0837
13,AAAGTCTA,-0.00319
14,ATTCCACA,0.335
15,ACTGACGC,-0.213
16,GAGAACAA,0.214
17,CACCTTCC,-0.0633
18,TGCTGCCA,-0.135
19,CCCATCAA,0.101
20,ATTGGGCA,-0.0994
21,AGTTTCCG,0.199
22,CAGTCTAG,-0.137
23,ACGGCCCA,-0.272
24,ATCGCTGG,-0.191

row,Sequence,PBM E-score
1,CTAGGTCA,-0.147
2,TGAATCAA,0.242
3,ATCATCTC,0.163
4,ACGTAGAA,0.0511
5,AAACACCA,-0.00105
6,GTTCAACA,0.113
7,ACGTCGCT,-0.158
8,AATCGGCG,-0.1
9,TAAGGTCA,0.028
10,CCATAAGG,-0.18
11,CACTGCAA,0.125
12,CGCCCGGA,-0.0607
13,GGTTCCAC,0.0211
14,ACACACAA,0.228
15,AGCTGAGG,-0.117
16,CGAGGACC,0.00778
17,CCGGTTCG,-0.102
18,CGAGCGCC,-0.195
19,ACCCCTAA,-0.153
20,ACAAACGT,0.106
21,ACAAAGGT,0.139
22,CCAACCGA,0.0191
